T1: recombinant monkey TfR (r monkey TfR, Sino Biological Inc.), extracellular region of cynomolgus monkey TfR … (cynomolgus monkey (Macaca fascicularis), UniProt Q5RDH6 89-760 (Pongo abelii entry))
T1 construct: not shown: histidine tag added to the N-terminus
T1 chain: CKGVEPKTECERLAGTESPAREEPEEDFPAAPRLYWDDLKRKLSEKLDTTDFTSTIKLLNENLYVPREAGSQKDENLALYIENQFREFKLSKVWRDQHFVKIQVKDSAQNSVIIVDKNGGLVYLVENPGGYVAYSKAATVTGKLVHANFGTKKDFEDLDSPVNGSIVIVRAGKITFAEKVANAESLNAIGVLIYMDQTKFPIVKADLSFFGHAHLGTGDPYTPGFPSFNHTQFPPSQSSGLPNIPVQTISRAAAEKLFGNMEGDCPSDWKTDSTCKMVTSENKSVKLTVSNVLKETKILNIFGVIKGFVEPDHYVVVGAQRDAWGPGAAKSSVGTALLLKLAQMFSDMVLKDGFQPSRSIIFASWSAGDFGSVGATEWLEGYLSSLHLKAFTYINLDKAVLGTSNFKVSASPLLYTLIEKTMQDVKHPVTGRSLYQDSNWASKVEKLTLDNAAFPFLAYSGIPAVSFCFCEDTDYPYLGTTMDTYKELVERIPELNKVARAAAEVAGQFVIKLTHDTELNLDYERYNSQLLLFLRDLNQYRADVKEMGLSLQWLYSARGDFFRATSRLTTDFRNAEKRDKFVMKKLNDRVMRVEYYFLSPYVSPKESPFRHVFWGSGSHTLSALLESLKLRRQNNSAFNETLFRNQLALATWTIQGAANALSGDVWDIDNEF


What was measured:
[1] = biological target: human TrkB (GenBank Acc. No. NP_001018074.1) expressed in CHO cells (CHO-TrkB cells) (human, UniProt Q16620 32-822); assay: cell-based or functional assay
[2] = biological target: T2, recombinant human TfR (r human TfR, Sino Biological Inc.), extracellular region of hTfR with N-terminal … (human, UniProt P02786); assay: BLI (OctetRED96); His-tagged TfR extracellular region loaded on Ni-NTA biosensor, antibody in solution
T2 construct: also called r human TfR-ECD (Histag); recombinant hTfR; not shown: histidine tag added to the N-terminus
Description: (§1) The affinity of the anti-hTfR antibody to human TfR and monkey TfR were measured on OctetRED96 (ForteBio Corporation, a division of Pall Corporation), a analysis system for biomolecular interaction utilizing Biolayer Interferometry (BLI). The basic principles of the biolayer interferometry are briefly explained below. When light of a specific wavelength is projected down toward the layer of immobilized biomolecules on the surface of sensor chip, lights reflect from each two layers of biomolecule and internal reference, produce interference wave of the light. As molecules in a analyte sample bind to biomoleculer of a sensor chip surface, the thickness of a layer at a sensor tip increases, which results in a shift of interference wave. By measuring a change in the wavelength shift, quantitation of number of molecules bound to biomolecules immobilized onto the sensor chip surface and kinetics analysis of it can be performed in real time. The measurement was generally performed by operation manual attached to the OctetRED96. As human TfR, a recombinant human TfR (r human TfR: Sino Biological Inc.) was used, which had the amino acid sequence of the extracellular region of hTfR, i.e. the cysteine residue at the 89th position from the N-terminus to the phenylalanine at the C-terminus of the amino acid sequence set forth as SEQ ID NO: 1, with a histidine tag added to the N-terminus. As monkey TfR, a recombinant monkey TfR (r monkey TfR: Sino Biological Inc.) was used, which had the amino acid sequence of the extracellular region of a cynomolgus monkey, i.e. the cysteine residue at the 89th position from the N-terminus to the phenylalanine of the C-terminus of the amino acid sequence set forth as SEQ ID NO: 2, with a histidine tag added to the N-terminus.
(§2) After OctetRED96 was run under the condition shown in the following Table 2 to collect data, the binding interaction curve was fitted to a 1:1 binding model or to a 2:1 binding model using the analysis software attached to the OctetRED96, the association rate constant (kon) and the dissociation rate constant (koff) of anti-hTfR antibody to r human TfR and r monkey TfR were measured, and the dissociation constants (KD) were calculated. The measurement was performed at 25° C. to 30° C.

[3] = biological target: T1, recombinant monkey TfR (r monkey TfR, …); assay: as above
Description: as §1, §2

UniProt Q16620, sequence (Q16620 32-822): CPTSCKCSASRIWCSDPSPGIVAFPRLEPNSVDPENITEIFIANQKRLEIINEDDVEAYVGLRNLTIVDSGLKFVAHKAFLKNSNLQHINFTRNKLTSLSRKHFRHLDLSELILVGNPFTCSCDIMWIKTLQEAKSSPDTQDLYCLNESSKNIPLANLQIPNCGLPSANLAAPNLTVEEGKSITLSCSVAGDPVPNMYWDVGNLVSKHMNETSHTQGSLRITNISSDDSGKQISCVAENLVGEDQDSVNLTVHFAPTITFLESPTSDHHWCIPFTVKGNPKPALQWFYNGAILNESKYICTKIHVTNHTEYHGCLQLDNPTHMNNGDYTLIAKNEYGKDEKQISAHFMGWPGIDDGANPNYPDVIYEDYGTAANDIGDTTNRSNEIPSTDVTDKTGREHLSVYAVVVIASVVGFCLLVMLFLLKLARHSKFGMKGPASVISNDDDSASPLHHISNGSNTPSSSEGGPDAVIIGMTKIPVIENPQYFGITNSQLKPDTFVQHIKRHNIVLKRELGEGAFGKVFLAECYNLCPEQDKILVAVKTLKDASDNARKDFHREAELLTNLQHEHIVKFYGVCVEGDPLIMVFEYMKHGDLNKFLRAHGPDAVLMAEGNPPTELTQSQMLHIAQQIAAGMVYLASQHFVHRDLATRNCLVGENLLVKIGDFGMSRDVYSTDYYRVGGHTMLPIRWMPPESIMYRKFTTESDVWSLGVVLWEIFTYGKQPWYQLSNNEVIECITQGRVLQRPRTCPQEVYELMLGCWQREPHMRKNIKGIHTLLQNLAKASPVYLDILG

BDNF activity (TrkB agonistic: EC50, nmol/L) [1] | Kd [2] | koff [2] | kon [2] | Kd [3] | koff [3] | kon [3] | Binder
0.2 nmol/L | – | – | – | – | – | – | hBDNF-anti-hTfR antibody (3N) 2 (Fc fusion) heavy: HSDPARRGELSVCDSISEWVTAADKKTAVDMSGGTVTVLEKVPVSKGQLKQYFYETKCNPMGYTKEGCRGIDKRHWNSQCRTTQSYVRALTMDSKKRIGWRFIRIDTSCVCTLTIKRGRGGGGSGGGGSGGGGSGGGGSGGGGS[human IgG1 Fc not listed]GGGGSGGGGSGGGGSGGGGSGGGGSEVQLVQSGAEVKKPGESLKISCKGSGYSFMNYWLGWVRQMPGKGLEWMGDIYPGGDYPTYSEKFKVQVTISADKSISTAYLQLSSLKASDTAMYYCARSGNYDEVAYWGQGTLVTVSSASTKGPSVFPLAPSSKSTSGGTAALGCLVKDYFPEPVTVSWNSGALTSGVHTFPAVLQSSGLYSLSSVVTVPSSSLGTQTYICNVNHKPSNTKVDKKVEPKSCDKTHT light: DIVMTQTPLSLSVTPGQPASISCRSSQSLVHSNGNTYLHWYLQKPGQSPQLLIYKVSNRFSGVPDRFSGSGSGTDFTLKISRVEAEDVGVYYCSQSTHVPWTFGQGTKVEIKRTVAAPSVFIFPPSDEQLKSGTASVVCLLNNFYPREAKVQWKVDNALQSGNSQESVTEQDSKDSTYSLSSTLTLSKADYEKHKVYACEVTHQGLSSPVTKSFNRGEC
– | < 0.001 nM | < 1e-07 s⁻¹ | 667000 M⁻¹ s⁻¹ | 0.861 nM | 0.000209 s⁻¹ | 243000 M⁻¹ s⁻¹ | Fc-Fab (3N), hFc-humanized anti-hTfR antibody (Fc fusion, Fab of No. 3N with a human IgG Fc region at the N-terminal side of the Fab heavy chain; no BDNF) heavy: [human IgG1 Fc not listed]GGGGSGGGGSGGGGSGGGGSGGGGSEVQLVQSGAEVKKPGESLKISCKGSGYSFMNYWLGWVRQMPGKGLEWMGDIYPGGDYPTYSEKFKVQVTISADKSISTAYLQLSSLKASDTAMYYCARSGNYDEVAYWGQGTLVTVSSASTKGPSVFPLAPSSKSTSGGTAALGCLVKDYFPEPVTVSWNSGALTSGVHTFPAVLQSSGLYSLSSVVTVPSSSLGTQTYICNVNHKPSNTKVDKKVEPKSCDKTHT light: DIVMTQTPLSLSVTPGQPASISCRSSQSLVHSNGNTYLHWYLQKPGQSPQLLIYKVSNRFSGVPDRFSGSGSGTDFTLKISRVEAEDVGVYYCSQSTHVPWTFGQGTKVEIKRTVAAPSVFIFPPSDEQLKSGTASVVCLLNNFYPREAKVQWKVDNALQSGNSQESVTEQDSKDSTYSLSSTLTLSKADYEKHKVYACEVTHQGLSSPVTKSFNRGEC
